{"source": "PubChem BioAssay AID1347165", "about": "(National Center for Advancing Translational Sciences (NCATS), 2019)", "note": "The campaign covered roughly 220,000 compounds. About 5,700 (2.6%) were called active. This list was built around the results that the source calls inconclusive (neither active nor inactive); the mix of calls is not that of the screen. The call rests on the fitted dose curve; in most records, active means well fitted inhibition curve with a large enough effect; inconclusive means small, poorly fitted or top-dose-only effect; inactive means no such curve, though single readings can be large or run the other way. A potency beside an inconclusive call is a rough fit, not a confirmed value. Potency means the concentration at half of the fitted maximal effect; tags describe the fitted curve by direction and shape."}
{"target": "Lysine-specific demethylase 5B (Homo sapiens) (UniProt Q9UGL1)", "sequence (Q9UGL1 whole entry, looked up)": "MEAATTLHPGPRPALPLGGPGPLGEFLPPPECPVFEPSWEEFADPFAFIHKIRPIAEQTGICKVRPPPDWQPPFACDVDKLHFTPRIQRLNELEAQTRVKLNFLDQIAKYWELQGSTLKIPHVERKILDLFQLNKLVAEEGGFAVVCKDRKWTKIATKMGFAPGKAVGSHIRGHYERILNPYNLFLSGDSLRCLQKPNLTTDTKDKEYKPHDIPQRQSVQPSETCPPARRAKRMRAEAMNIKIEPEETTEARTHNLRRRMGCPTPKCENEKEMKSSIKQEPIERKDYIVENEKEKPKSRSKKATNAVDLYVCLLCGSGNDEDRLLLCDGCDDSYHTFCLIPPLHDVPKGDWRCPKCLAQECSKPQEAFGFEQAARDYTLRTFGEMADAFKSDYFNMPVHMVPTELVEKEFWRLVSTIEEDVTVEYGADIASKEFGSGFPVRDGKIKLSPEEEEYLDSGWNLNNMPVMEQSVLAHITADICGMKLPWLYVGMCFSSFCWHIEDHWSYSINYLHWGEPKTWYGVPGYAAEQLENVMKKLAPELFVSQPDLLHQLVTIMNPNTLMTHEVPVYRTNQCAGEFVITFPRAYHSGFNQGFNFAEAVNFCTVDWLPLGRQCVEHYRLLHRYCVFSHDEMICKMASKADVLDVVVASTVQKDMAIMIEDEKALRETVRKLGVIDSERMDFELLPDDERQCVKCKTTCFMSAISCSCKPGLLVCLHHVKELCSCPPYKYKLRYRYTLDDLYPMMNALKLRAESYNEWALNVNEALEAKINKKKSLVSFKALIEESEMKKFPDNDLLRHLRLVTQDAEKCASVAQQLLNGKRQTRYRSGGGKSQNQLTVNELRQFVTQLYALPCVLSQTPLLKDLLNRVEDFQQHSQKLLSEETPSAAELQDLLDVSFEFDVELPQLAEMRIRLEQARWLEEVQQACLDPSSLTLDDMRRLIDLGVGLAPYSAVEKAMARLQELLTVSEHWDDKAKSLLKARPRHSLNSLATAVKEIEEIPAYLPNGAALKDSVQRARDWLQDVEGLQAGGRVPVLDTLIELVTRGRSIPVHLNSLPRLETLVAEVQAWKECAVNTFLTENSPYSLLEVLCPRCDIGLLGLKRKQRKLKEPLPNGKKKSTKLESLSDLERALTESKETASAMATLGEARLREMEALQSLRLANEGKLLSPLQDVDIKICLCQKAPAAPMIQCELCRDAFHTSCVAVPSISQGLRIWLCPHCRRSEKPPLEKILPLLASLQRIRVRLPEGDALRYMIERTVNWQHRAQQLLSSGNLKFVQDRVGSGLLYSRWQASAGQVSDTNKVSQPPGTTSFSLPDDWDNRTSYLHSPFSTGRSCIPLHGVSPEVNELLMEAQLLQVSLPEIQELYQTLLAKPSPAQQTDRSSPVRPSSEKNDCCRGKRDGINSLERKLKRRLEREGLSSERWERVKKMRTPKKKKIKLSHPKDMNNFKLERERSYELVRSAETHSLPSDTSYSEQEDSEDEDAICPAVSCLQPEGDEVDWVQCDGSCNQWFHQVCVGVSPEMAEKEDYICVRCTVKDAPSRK", "assay": "Primary screen for KDM5B Histone Demethylases FDH-coupled qHTS; further: nearly all actives have a fitted effect of over 70% in size", "settings": "FDH-coupled NADH fluorescence (FDH is formaldehyde dehydrogenase); series mostly up to 57.7 µM", "procedure,_shortened": "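KDM5BΔAP (200 nM final) in 50 mM HEPES pH 7.5, 0.01% Tween-20 was preincubated 10 min at RT with compound over a concentration range. Substrate mix (H3K4me3 12.5 µM, α-KG 25 µM, Fe²⁺, ascorbate, NAD⁺, FDH) was added, and NADH fluorescence change over 30 min gave dose-response curves.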"}
{"smiles": "CN1c2ccccc2-c2nc(SCC(=O)Nc3ccccc3)ncc2S1(=O)=O", "Potency": "inconclusive: 28.2 µM [inhibitor, partial curve, poor fit]"}
{"smiles": "Nc1ccc(S(=O)(=O)O)c2cccc(S(=O)(=O)O)c12", "Potency": "inconclusive: 22.4 µM [inhibitor, partial curve, poor fit]"}
{"smiles": "CC(=O)c1cccc(NC(=O)CN(C)Cc2ccc(OC(F)F)cc2)c1", "Potency": "inconclusive: 6.31 µM [inhibitor, full curve, poor fit]"}
{"smiles": "Cc1cc(=O)oc2cc(NC(=O)Cc3ccccc3F)ccc12", "Potency": "inconclusive: 12.6 µM [inhibitor, partial curve, poor fit]"}
{"smiles": "CCCn1c(SCc2cc(=O)oc3c(C)c(C)ccc23)n[nH]c1=O", "Potency": "inconclusive: 25.1 µM [inhibitor, single point]"}
{"smiles": "c1ccc(Cn2cc(CN3CCCC3)c(-c3ccc4c(c3)OCO4)n2)cc1", "Potency": "inconclusive: 14.1 µM [inhibitor, single point]"}
{"smiles": "CC(NC(=O)c1noc(-c2ccc3c(c2)OCO3)n1)c1ccc(F)cc1", "note": "(stereo unspecified)", "Potency": "inconclusive: 25.1 µM [inhibitor, partial curve, poor fit]"}
{"smiles": "CCCCCCn1c(/C=C/c2ccccc2)nc2ccccc21", "Potency": "inconclusive: 28.2 µM [inhibitor, partial curve, poor fit]"}
{"smiles": "c1ccc(Nc2ncnc3c2oc2ccccc23)cc1", "Potency": "inconclusive: 39.8 µM [inhibitor, partial curve, poor fit]"}
{"smiles": "O=C(O)C1CCN(S(=O)(=O)c2ccc(Cl)c(Cl)c2)CC1", "Potency": "inactive"}
{"smiles": "COc1ccc(C(=O)COC(=O)c2c(Cl)cccc2Cl)c(OC)c1", "Potency": "inactive"}
{"smiles": "CSc1cccc(NC(=O)c2ccc3c(c2)CCCN3S(C)(=O)=O)c1", "Potency": "inconclusive: 44.7 µM [inhibitor, single point]"}
{"smiles": "CCN1C(=O)c2ccccc2S(=O)(=O)c2ccc(C(=O)NCc3ccc(F)cc3)cc21", "Potency": "inactive"}
{"smiles": "O=C(Nc1nccs1)[C@@H]1C[C@H](c2ccc(F)cc2)N(Cc2ccccc2Cl)C1", "Potency": "inactive"}
{"smiles": "Cc1ccccc1NC(=O)C(C#N)=C1CCC(C(C)(C)C)CC1", "note": "(stereo unspecified)", "Potency": "inactive"}
{"smiles": "Cc1ccccc1CN1CCN(c2oc(C3CC3)nc2C#N)CC1", "Potency": "inactive"}
{"smiles": "COc1ccc(-c2nc(CSc3nc4ncccc4[nH]3)c(C)o2)cc1OC", "Potency": "inconclusive: 14.1 µM [inhibitor, partial curve, poor fit]"}
{"smiles": "O=C(NC1CCCc2c1[nH]c1ccc(F)cc21)c1ccc(Br)o1", "note": "(stereo unspecified)", "Potency": "inconclusive: 11.2 µM [inhibitor, partial curve]"}
{"smiles": "NC(=O)[C@@H]1CN(Cc2ccco2)C[C@H]1COc1ccccc1", "Potency": "inactive"}
{"smiles": "COc1ccc(NC(=O)c2ccc(-c3cccc(Cl)c3C)o2)cc1", "Potency": "inconclusive: 15.8 µM [inhibitor, partial curve, poor fit]"}
{"smiles": "O=C(Cc1cccc(F)c1)NCc1nnc2cc(-c3nc(C4CC4)no3)ccn12", "Potency": "active: 28.2 µM"}
{"smiles": "CCOCCNc1ncnc2c1CN(C1CCCNCC1)C(=O)CN2C", "note": "(stereo unspecified)", "Potency": "inconclusive: 44.7 µM [inhibitor, partial curve, poor fit]"}
{"smiles": "COc1ccc(C(=O)Nc2ccc(-c3noc([C@@H]4CCCN4Cc4c[nH]c5ccccc45)n3)cn2)cc1", "Potency": "inconclusive: 22.4 µM [inhibitor, partial curve, poor fit]"}
{"smiles": "COc1ccccc1-c1cc(-c2cn[nH]c2)c2onc(C)c2n1", "Potency": "inconclusive: 39.8 µM [inhibitor, partial curve, poor fit]"}
{"smiles": "CC(C)Oc1cccc(-c2nc(C(=O)NCc3ccc(F)cc3)cs2)c1", "Potency": "inconclusive: 28.2 µM [inhibitor, single point]"}
{"smiles": "CC(C)NC(=O)c1cnc2c(c1)N(C(=O)Cc1cccc(C(F)(F)F)c1)CCC2", "Potency": "inactive"}
{"smiles": "CCN1CCN(c2ccccc2NC(=O)c2ccc(NC(=O)c3ccco3)s2)CC1", "Potency": "inactive"}
{"smiles": "COc1cncc(Nc2cnc3ccc(-c4ccc(OC)c(OC)c4)nn23)c1", "Potency": "inactive"}
{"smiles": "COc1cc(OC)cc(C(=O)NC2CCN(c3cc(-c4ccc(F)cc4)[nH]n3)C2)c1", "note": "(stereo unspecified)", "Potency": "inconclusive: 6.31 µM [inhibitor, partial curve]"}
{"smiles": "Cc1ccc(/C=C2/SC(=S)N(c3ccc(S(=O)(=O)Nc4nccs4)cc3)C2=O)cc1", "Potency": "inconclusive: 39.8 µM [inhibitor, partial curve, poor fit]"}
{"smiles": "COc1ccc(-c2cc(C(=O)N(C)Cc3ccccc3F)c3ccccc3n2)cc1OC", "Potency": "inconclusive: 39.8 µM [inhibitor, partial curve, poor fit]"}
{"smiles": "COc1cc(OC)c(C2C=C(c3ccc(C)cc3)Nc3c(C(=O)Nc4ccccc4)cnn32)cc1OC", "note": "(stereo unspecified)", "Potency": "inconclusive: 15.8 µM [inhibitor, partial curve, poor fit]"}
{"smiles": "O=c1[nH]c2ccc(S(=O)(=O)Nc3c(NC4CCCCC4)c4ccccc4oc3=O)cc2o1", "Potency": "inactive"}
{"smiles": "Cc1cc(O)c(C(c2ccccc2Cl)N2CCCCC2)c(=O)n1Cc1ccco1", "note": "(stereo unspecified)", "Potency": "inconclusive: 25.1 µM [inhibitor, partial curve, poor fit]"}
{"smiles": "Cc1nn(-c2cc(N3CCN(C(=O)C(C)(C)C)CC3)ccc2[N+](=O)[O-])c(=O)c2ccccc12", "Potency": "inactive"}
{"smiles": "CCc1nccc(CN2CCCC(CC3CC3)(C(=O)O)C2)n1", "note": "(stereo unspecified)", "Potency": "inconclusive: 15.8 µM [inhibitor, single point]"}
{"smiles": "Cc1cccc(-c2cc(C(=O)O)c3cc(C)ccc3n2)c1", "Potency": "inconclusive: 39.8 µM [inhibitor, single point]"}
{"smiles": "O=C(CCc1cc(Cl)no1)N(CCS(=O)(=O)N1CCOCC1)Cc1cccnc1", "Potency": "inconclusive: 14.1 µM [inhibitor, partial curve, poor fit]"}
{"smiles": "Cc1cc(=O)n(C(C)C(=O)NCc2ccccc2Cl)c2c1c(C)nn2-c1ccccc1", "note": "(stereo unspecified)", "Potency": "inactive"}
{"smiles": "O=C(NCc1cccnc1)[C@@H]1C[C@@H](O)CN1C1CCN(C(=O)c2ccsc2)CC1", "Potency": "inactive"}
{"smiles": "COc1ccccc1C(=O)N1CCC2(CC1)CN[S+](=O)([O-])c1cccnc1O2", "Potency": "inconclusive: 89.1 µM [inhibitor, single point]"}
{"smiles": "O[C@H]1[C@H](NCc2ccccn2)[C@H]2CO[C@H](O2)[C@@H]1N1CCN(c2ccccc2)CC1", "Potency": "inconclusive: 28.2 µM [inhibitor, partial curve]"}
{"smiles": "CS(=O)(=O)c1ccc(CN2CCC[C@H]2c2nc(-c3ccc(-c4ccncc4)nc3)no2)cc1", "Potency": "inactive"}
{"smiles": "Cn1nccc1C(=O)N1CCC(N2CC3CC(C2)[C@H]2CCCC(=O)N2C3)CC1", "note": "(stereo partly specified)", "Potency": "inconclusive: 12.6 µM [inhibitor, partial curve]"}
{"smiles": "COCCN1CCCCCC(O)c2cc(C(=O)NCc3ccc(F)cc3)ccc21", "note": "(stereo unspecified)", "Potency": "inconclusive: 22.4 µM [inhibitor, partial curve, poor fit]"}
{"smiles": "O=C(NCC1CCCO1)C1CCN(C(=O)c2ncn3c2COC(c2ccc(F)cc2)C3)CC1", "note": "(stereo unspecified)", "Potency": "inactive"}
{"smiles": "COCCNc1ncnc2c1CN(C1CNC1)C(=O)CN2C", "Potency": "inconclusive: 50.1 µM [inhibitor, partial curve, poor fit]"}
{"smiles": "C=CCOC(=O)C(C#N)c1nc2ccccc2nc1N1CCC(Cc2ccccc2)CC1", "note": "(stereo unspecified)", "Potency": "inactive"}
{"smiles": "CCOc1cc(/C=C/c2ncc(C(=O)O)s2)cc(Cl)c1OC", "Potency": "inconclusive: 25.1 µM [inhibitor, partial curve, poor fit]"}
{"smiles": "Cc1ccc(S(=O)(=O)N2CCCc3cc(NC(=O)c4ccc(C(F)(F)F)cc4)ccc32)cc1", "Potency": "inconclusive: 2.51 µM [inhibitor, full curve, poor fit]"}
{"smiles": "Cc1ccc(-c2nc(C3CC(=O)OC34CCCC4)n(CC(=O)O)n2)o1", "note": "(stereo unspecified)", "Potency": "inconclusive: 15.8 µM [inhibitor, partial curve, poor fit]"}
{"smiles": "Cc1[nH]c2ccc(C(=O)N3CCN(C)CC3)cc2c1C", "Potency": "inactive"}
{"smiles": "O=C(NC1CCN(c2cc(-c3cccs3)[nH]n2)C1)c1ccc2[nH]ccc2c1", "note": "(stereo unspecified)", "Potency": "inconclusive: 12.6 µM [inhibitor, partial curve, poor fit]"}
{"smiles": "CCN(Cc1ccccc1)C(=O)c1cc2c(N3CCCC3)nc(C)cn2n1", "Potency": "active: 25.1 µM"}
{"smiles": "O=C(OCc1ccccc1)N1CCn2ncc(C(=O)N3CCOCC3)c2C1", "Potency": "inactive"}
{"smiles": "COC(=O)c1ccc(NC(=O)N2CCC3(CC2)CC(N2CCCC2)CCO3)cc1", "note": "(stereo unspecified)", "Potency": "inactive"}
{"smiles": "COc1cccc(CN2CCNc3cnc(Nc4ccccc4)cc3C2)c1", "Potency": "active: 35.5 µM"}
{"smiles": "Cc1cc(N2CCN(C)CC2)nc2ccc(NC(=O)Nc3ccccc3Cl)cc12", "Potency": "inconclusive: 3.55 µM [inhibitor, full curve, poor fit]"}
{"smiles": "COc1ccc(NC(=O)CCCN2C(=O)C(c3ccccc3)Oc3cccnc32)cc1OC", "note": "(stereo unspecified)", "Potency": "inconclusive: 2 µM [inhibitor, partial curve, poor fit]"}
{"smiles": "Cc1noc(C)c1COc1ccc(CC(=O)Nc2ncc(Cc3ccccc3)s2)cc1", "Potency": "inactive"}
{"smiles": "O=C(CSc1nc(=O)n(Cc2ccncc2)c2c1CCC2)N1CCCCCC1", "Potency": "inactive"}
{"smiles": "COc1ccc(NC(=O)c2oc3ccc4c(c3c2C)C(=O)CC(C)(C)O4)cc1OC", "Potency": "inconclusive: 25.1 µM [inhibitor, partial curve, poor fit]"}
{"smiles": "O=C(Cc1c[nH]c2ncc(-c3ccccc3)cc12)Nc1cccnc1", "Potency": "inconclusive: 50.1 µM [inhibitor, single point]"}
{"smiles": "O=C(NCc1ccc2c(c1)OCO2)c1nc(-c2ccccc2)c2ccccn12", "Potency": "inconclusive: 15.8 µM [inhibitor, partial curve, poor fit]"}
{"smiles": "CC(C)CCN1C(=O)CC[C@]2(C(=O)NCCc3cccnc3)CCCC[C@@H]12", "Potency": "inactive"}
{"smiles": "O=C(O)/C=C/c1ccc(-c2ccccc2F)o1", "Potency": "inconclusive: 22.4 µM [inhibitor, partial curve, poor fit]"}
